For some of these results: Not every detail of the peptide structures is certain; ends, links or a residue may be inferred. For some of these results: At least one structure is not confirmed: it was looked up by name or label, or the drawing left a doubt.
Key:
[1] = biological target: GRPR (Homo sapiens, UniProt P30550); assay: GRPR affinity of GRPR-targeted agents; format: binding
[2] = biological target: CatB (Homo sapiens, UniProt P07858); assay: CatB inhibition of GRPR-targeted agents; format: biochemical
Protocol: The Inhibition of Cathepsin B Activity by the Conjugates The phosphate buffer (0.1 M, pH=5.8) containing EDTA (1 mM), DTT (2.7 mM), and Brij®35 (0.03%) was prepared before the assay. […] The solution of cathepsin B (human Liver) in assay buffer (50 μL, 0.544 nM) was added to the mixture which was further incubated at 37° C. for 20 minutes. The fluorescence of the liberated aminomethylcoumarin at 460 nM using 355 nm excitation was measured and the IC50 of the cathepsin B inhibition versus the samples without the inhibitor was determined by nonlinear regression using GraphPad Prism 5.

[3] = biological target: T1, cathepsin B (human Liver) (Homo sapiens, UniProt P07858); assay: Inhibition constant (Ki) of the compounds to cathepsin B; format: biochemical; conditions: Table 4; read-out: CatB Ki
T1 construct: from tissue; host or cells: human liver
Protocol: Determination of the Km and Vmax of Cathepsin B for Z-Arg-Arg-AMC
The solution of cathepsin B (human Liver) (50 μL, 2 nM) in assay buffer used above was mixed with 50 μL of solution of substrate Z-Arg-Arg-AMC in the assay buffer at different concentrations ([S]) (25 μM, 50 μM, 100 μM, 500 μM and 1 mM). The mixture was incubated at 37° C. and the fluorescence of the liberated aminomethylcoumarin at 460 nM using 355 nm excitation was measured at predetermined time points (0, 2, 4, 6, 8, and 10 minutes). The fluorescence intensity was plotted versus time and the reaction rates (v0) were calculated as the slope of the trend lines obtained by liner regression. Km and maximum reaction rate (Vmax-obs) was determined from the equation v0=Vmax[S]/(Km+[S]) and solved by nonlinear regression using GraphPad Prism 5. All measurements were in biological triplicate.
Determination of the Inhibition Constant (Ki) of the Compounds to Cathepsin B
The cathepsin B (human Liver) in assay buffer (25 μL) was mixed with the conjugate (25 μL) in 96-well plate. After the solution was mixed, the Z-Arg-Arg-AMC in assay buffer (50 μL) was added to the well, yielding a final cathepsin B concentration of 1 nM, conjugate concentration ([C]) of 15 nM or 5 μM, and substrate concentration ([S]) of 25 μM, 50 μM, 100 μM, 500 μM and 1 mM. The mixture was incubated at 37° C. and the fluorescence of the liberated aminomethylcoumarin at 460 nM using 355 nm excitation was measured at predetermined time points (0, 2, 4, 6, 8, and 10 minutes). The fluorescence intensity was plotted versus time with observed reaction rates (v0-obs) calculated as the slope of the trend lines obtained by liner regression. The observed rate constant (Kobs) and observed maximum reaction rate (Vmax-obs) was determined from the equation v0-obs=Vmax-obs [S]/(Kobs+[S]) and solved by nonlinear regression using GraphPad Prism 5. The Ki was calculated from the equation Kobs=Km (1+[C]/Ki). All measurements were in biological triplicate.

[4] = Distribution coefficient (Log D7.4) of the conjugates; format: physicochemical; conditions: GRPR-targeted agents
Protocol: Distribution Coefficient (Log D7.4) of the Conjugates The distribution coefficient was determined for each ^177Lu-labeled conjugate. In a 1.5 mL centrifuge tube, 0.5 mL of 1-octanol was added to 0.5 mL of PBS (pH 7.4) containing the radiolabeled peptide (500,000 cpm). The solution was vigorously vortexed for 2 minutes at room temperature and subsequently centrifuged to yield two immiscible layers. The radioactivity of the aliquots (100 μL) taken from each layer were quantified by the gamma counter and the Log D7.4 for each conjugates was calculated.

[5] = tested on: HT-29 cells; assay: Cell trapping study of the Cy5 labelled conjugates (confocal microscopy); format: cell-based, human; conditions: at 24 hours

Sequence of GRPR (P30550 whole entry): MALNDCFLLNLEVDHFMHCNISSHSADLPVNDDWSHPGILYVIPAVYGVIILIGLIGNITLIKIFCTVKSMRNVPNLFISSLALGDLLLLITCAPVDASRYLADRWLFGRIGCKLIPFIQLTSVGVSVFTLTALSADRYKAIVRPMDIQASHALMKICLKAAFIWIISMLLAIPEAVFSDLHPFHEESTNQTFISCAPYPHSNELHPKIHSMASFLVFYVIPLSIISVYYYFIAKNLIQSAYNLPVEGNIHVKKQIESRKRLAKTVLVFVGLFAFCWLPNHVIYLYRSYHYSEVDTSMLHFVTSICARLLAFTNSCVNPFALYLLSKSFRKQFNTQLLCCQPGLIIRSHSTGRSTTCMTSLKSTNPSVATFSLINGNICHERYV

Row | SMILES | IC50 [1] [nM] | IC50 [2] [nM] | Ki [3] [nM] | also measured
1 | CSCC[C@H](NC(=O)[C@H](CC(C)C)NC(=O)[C@H](Cc1c[nH]cn1)NC(=O)CNC(=O)[C@@H](NC(=O)[C@H](C)NC(=O)[C@H](Cc1c[nH]c2ccccc12)NC(=O)[C@H](CCC(N)=O)NC(=O)CCOCCOCCOCCOCCNC(=O)[C@H](Cc1cn(CCNC(=O)[C@H](CCCNC(=N)N)NC(=O)[C@H](CC(C)C)NC(=O)C2OC2C(=O)O)nn1)NC(=O)CN1CCN(CC(=O)O)CCN(CC(=O)O)CCN(CC(=O)O)CC1)C(C)C)C(N)=O (stereo partly shown) [^177Lu-A-AG, metal not drawn] | 17.8 ± 3.8 | 25.9 ± 4.2 |  | 
2 | Cc1cc(O)cc(C)c1C[C@H](NC(=O)[C@@H]1CCCN1C(=O)[C@H](CCCNC(=N)N)NC(=O)[C@H](CCCNC(=N)N)N(C)C(=O)CNC(=O)[C@@H](CO)NC(=O)CNC(=O)[C@H](Cc1cn(CCNC(=O)[C@H](CCCNC(=N)N)NC(=O)[C@H](CC(C)C)NC(=O)C2OC2C(=O)O)nn1)NC(=O)CN1CCN(CC(=O)O)CCN(CC(=O)O)CCN(CC(=O)O)CC1)C(=O)N[C@H](C(=O)N[C@@H](CC(C)C)C(=O)O)C(C)(C)C (stereo partly shown) [NE2a] |  |  | 53 ± 5 | 
3 | Cc1cc(O)cc(C)c1C[C@H](NC(=O)[C@@H]1CCCN1C(=O)[C@H](CCCNC(=N)N)NC(=O)[C@H](CCCNC(=N)N)N(C)C(=O)CNC(=O)[C@@H](CO)NC(=O)CNC(=O)[C@H](Cc1cn(CCNC(=O)[C@H](CC(C)C)NC(=O)[C@H](CC(C)C)NC(=O)C2OC2C(=O)NO)nn1)NC(=O)CN1CCN(CC(=O)O)CCN(CC(=O)O)CCN(CC(=O)O)CC1)C(=O)N[C@H](C(=O)N[C@@H](CC(C)C)C(=O)O)C(C)(C)C (stereo partly shown) [NE2d] |  |  | 140 ± 31 | 
4 | Cc1cc(O)cc(C)c1C[C@H](NC(=O)[C@@H]1CCCN1C(=O)[C@H](CCCNC(=N)N)NC(=O)[C@H](CCCNC(=N)N)N(C)C(=O)CNC(=O)[C@@H](CO)NC(=O)CNC(=O)[C@H](Cc1cn(CCNC(=O)[C@H](CC(C)C)NC(=O)[C@H](CC(C)C)NC(=O)C2OC2C(=O)O)nn1)NC(=O)CN1CCN(CC(=O)O)CCN(CC(=O)O)CCN(CC(=O)O)CC1)C(=O)N[C@H](C(=O)N[C@@H](CC(C)C)C(=O)O)C(C)(C)C (stereo partly shown) [NE2c] |  |  | 13 ± 3 | 
5 | Cc1cc(O)cc(C)c1C[C@H](NC(=O)[C@@H]1CCCN1C(=O)[C@H](CCCNC(=N)N)NC(=O)[C@H](CCCNC(=N)N)N(C)C(=O)CNC(=O)[C@@H](CO)NC(=O)CNC(=O)[C@H](Cc1cn(CCNC(=O)[C@H](Cc2ccc(O)cc2)NC(=O)[C@H](CC(C)C)NC(=O)C2OC2C(=O)O)nn1)NC(=O)CN1CCN(CC(=O)O)CCN(CC(=O)O)CCN(CC(=O)O)CC1)C(=O)N[C@H](C(=O)N[C@@H](CC(C)C)C(=O)O)C(C)(C)C (stereo partly shown) [NE2b] |  |  | 96 ± 14 | 
6 | CC(C)C[C@H](NC(=O)CCC(=O)O)C(=O)N[C@@H](CCCNC(=N)N)C(=O)NCCn1cc(C[C@H](NC(=O)CN2CCN(CC(=O)O)CCN(CC(=O)O)CCN(CC(=O)O)CC2)C(=O)NCCOCCOCCOCCOCCC(=O)N[C@H](Cc2ccccc2)C(=O)N[C@@H](CCC(N)=O)C(=O)N[C@@H](Cc2c[nH]c3ccccc23)C(=O)N[C@@H](C)C(=O)N[C@H](C(=O)NCC(=O)N[C@@H](Cc2c[nH]cn2)C(=O)N[C@@H](CC(C)C)[C@@H](O)CC(=O)N[C@H](CC(C)C)C(N)=O)C(C)C)nn1 [^177Lu-C-ANT, metal not drawn] | 23.5 ± 3.6 | > 200000 |  | 
7 | CSCC[C@H](NC(=O)[C@H](CC(C)C)NC(=O)[C@H](Cc1c[nH]cn1)NC(=O)CNC(=O)[C@@H](NC(=O)[C@H](C)NC(=O)[C@H](Cc1c[nH]c2ccccc12)NC(=O)[C@H](CCC(N)=O)NC(=O)CCOCCOCCOCCOCCNC(=O)[C@H](Cc1cn(CCNC(=O)[C@H](CCCNC(=N)N)NC(=O)[C@H](CC(C)C)NC(=O)CCC(=O)O)nn1)NC(=O)CN1CCN(CC(=O)O)CCN(CC(=O)O)CCN(CC(=O)O)CC1)C(C)C)C(N)=O [^177Lu-C-AG, metal not drawn] |  |  |  | logD7.4 [4]: −3.4 ± 0.1; inhibition of catB (in words) [2]: no inhibition
8 | Cc1cc(C)c(C(=O)OCC(=O)[C@H](CCCCNC(=O)CNC(=O)[C@@H](CO)NC(=O)[C@@H](CO)NC(=O)[C@@H](CO)NC(=O)Cn2cc(C[C@H](NC(=O)CCCCC[N+]3=C(/C=C/C=C/C=C4/N(C)c5ccccc5C4(C)C)C(C)(C)c4ccccc43)C(=O)N[C@H](CO)C(=O)N[C@H](CO)C(=O)N[C@H](CO)C(=O)N[C@@H](CCCCN)C(=O)N3CCC[C@H]3C(=O)N(C)[C@@H](CCCNC(=N)N)C(=O)N[C@@H](CCCNC(=N)N)C(=O)N3CCC[C@H]3C(=O)N[C@@H](Cc3c(C)cc(O)cc3C)C(=O)N[C@H](C(=O)N[C@@H](CC(C)C)C(=O)O)C(C)(C)C)nn2)NC(=O)[C@H](Cc2ccccc2)NC(=O)OCc2ccccc2)c(C)c1 [Compound 4a] |  |  |  | increase in fluorescence compared with inactive counterpart 4b [5]: 5.5 fold
9 | CC(C)C[C@H](NC(=O)C1OC1C(=O)O)C(=O)N[C@@H](CCCNC(=N)N)C(=O)NCCn1cc(C[C@H](NC(=O)CN2CCN(CC(=O)O)CCN(CC(=O)O)CCN(CC(=O)O)CC2)C(=O)NCCOCCOCCOCCOCCC(=O)N[C@H](Cc2ccccc2)C(=O)N[C@@H](CCC(N)=O)C(=O)N[C@@H](Cc2c[nH]c3ccccc23)C(=O)N[C@@H](C)C(=O)N[C@H](C(=O)NCC(=O)N[C@@H](Cc2c[nH]cn2)C(=O)N[C@@H](CC(C)C)[C@@H](O)CC(=O)N[C@H](CC(C)C)C(N)=O)C(C)C)nn1 (stereo partly shown) [^177Lu-A-ANT, metal not drawn] | 19.8 ± 3 | 20.6 ± 5.9 |  | 

— patent US12485191B2, “Radiopharmaceuticals and methods of use thereof” (BOARD OF REGENTS OF THE UNIVERSITY OF NEBRASKA, priority 2017, dated 2025)
